Experimental data reported in article doi:10.1101/2024.12.23.630145, “Setdb1 and Atf7IP form a hetero-trimeric complex that blocks Setdb1 nuclear export” (bioRxiv, 2024).
Results are given in words; binding and its absence hold for the method and conditions named. For some of these results: In cells and extracts the contact can be indirect. Some binding calls cover weakened binding; strength is not graded here. For some of these results: Where a sequence is shown, tags or fusion partners need not be part of it.

T1: Flag-Atf7IP(836–1270) (human) (UniProt Q6VMQ6)
T1 sequence: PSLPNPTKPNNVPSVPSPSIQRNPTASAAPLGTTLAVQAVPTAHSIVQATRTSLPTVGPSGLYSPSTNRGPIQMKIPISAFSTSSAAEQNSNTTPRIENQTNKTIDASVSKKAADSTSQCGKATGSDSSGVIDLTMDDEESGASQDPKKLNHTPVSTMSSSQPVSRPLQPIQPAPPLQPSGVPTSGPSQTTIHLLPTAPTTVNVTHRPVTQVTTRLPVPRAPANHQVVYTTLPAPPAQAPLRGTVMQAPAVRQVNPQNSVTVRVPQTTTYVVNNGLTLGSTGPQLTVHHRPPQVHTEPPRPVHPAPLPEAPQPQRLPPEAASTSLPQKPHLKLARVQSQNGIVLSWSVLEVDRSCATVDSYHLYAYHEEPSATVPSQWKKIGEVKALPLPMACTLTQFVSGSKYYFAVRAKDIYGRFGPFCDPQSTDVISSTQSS

T2: FLAG-Atf7IP (human) (UniProt Q6VMQ6)
T2 sequence: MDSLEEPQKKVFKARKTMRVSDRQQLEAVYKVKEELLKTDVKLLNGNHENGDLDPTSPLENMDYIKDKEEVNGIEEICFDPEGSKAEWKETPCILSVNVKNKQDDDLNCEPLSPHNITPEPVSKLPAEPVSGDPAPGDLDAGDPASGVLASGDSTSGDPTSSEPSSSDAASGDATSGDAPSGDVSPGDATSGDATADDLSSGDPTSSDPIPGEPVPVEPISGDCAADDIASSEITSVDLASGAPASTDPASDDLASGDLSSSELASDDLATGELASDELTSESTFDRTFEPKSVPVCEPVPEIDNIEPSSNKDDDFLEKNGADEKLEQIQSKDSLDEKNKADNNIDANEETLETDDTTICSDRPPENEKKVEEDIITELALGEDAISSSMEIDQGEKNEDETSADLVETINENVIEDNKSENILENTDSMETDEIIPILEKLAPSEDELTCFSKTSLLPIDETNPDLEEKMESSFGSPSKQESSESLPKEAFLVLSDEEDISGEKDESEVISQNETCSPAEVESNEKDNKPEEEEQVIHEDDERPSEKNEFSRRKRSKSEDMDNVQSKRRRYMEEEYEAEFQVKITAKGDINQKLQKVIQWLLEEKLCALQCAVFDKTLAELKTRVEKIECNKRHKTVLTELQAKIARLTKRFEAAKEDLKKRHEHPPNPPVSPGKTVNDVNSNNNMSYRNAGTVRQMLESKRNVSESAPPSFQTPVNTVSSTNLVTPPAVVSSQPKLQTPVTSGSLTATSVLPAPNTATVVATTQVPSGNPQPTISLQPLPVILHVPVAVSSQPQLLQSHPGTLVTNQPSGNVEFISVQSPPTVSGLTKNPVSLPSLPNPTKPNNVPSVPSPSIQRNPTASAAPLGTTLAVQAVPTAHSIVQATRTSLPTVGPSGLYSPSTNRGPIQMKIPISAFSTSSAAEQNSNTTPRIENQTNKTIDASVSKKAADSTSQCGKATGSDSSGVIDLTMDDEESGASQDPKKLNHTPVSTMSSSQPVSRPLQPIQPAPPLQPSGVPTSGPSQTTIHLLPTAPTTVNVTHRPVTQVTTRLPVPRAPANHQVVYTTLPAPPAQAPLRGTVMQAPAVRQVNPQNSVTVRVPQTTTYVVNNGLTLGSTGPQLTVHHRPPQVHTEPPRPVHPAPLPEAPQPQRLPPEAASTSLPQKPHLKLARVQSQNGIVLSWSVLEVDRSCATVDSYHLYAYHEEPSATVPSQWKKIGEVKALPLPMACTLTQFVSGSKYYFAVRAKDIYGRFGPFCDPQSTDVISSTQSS

T3: FLAG-Atf7IP(Δ574–666) (human) (UniProt Q6VMQ6)
T3 sequence: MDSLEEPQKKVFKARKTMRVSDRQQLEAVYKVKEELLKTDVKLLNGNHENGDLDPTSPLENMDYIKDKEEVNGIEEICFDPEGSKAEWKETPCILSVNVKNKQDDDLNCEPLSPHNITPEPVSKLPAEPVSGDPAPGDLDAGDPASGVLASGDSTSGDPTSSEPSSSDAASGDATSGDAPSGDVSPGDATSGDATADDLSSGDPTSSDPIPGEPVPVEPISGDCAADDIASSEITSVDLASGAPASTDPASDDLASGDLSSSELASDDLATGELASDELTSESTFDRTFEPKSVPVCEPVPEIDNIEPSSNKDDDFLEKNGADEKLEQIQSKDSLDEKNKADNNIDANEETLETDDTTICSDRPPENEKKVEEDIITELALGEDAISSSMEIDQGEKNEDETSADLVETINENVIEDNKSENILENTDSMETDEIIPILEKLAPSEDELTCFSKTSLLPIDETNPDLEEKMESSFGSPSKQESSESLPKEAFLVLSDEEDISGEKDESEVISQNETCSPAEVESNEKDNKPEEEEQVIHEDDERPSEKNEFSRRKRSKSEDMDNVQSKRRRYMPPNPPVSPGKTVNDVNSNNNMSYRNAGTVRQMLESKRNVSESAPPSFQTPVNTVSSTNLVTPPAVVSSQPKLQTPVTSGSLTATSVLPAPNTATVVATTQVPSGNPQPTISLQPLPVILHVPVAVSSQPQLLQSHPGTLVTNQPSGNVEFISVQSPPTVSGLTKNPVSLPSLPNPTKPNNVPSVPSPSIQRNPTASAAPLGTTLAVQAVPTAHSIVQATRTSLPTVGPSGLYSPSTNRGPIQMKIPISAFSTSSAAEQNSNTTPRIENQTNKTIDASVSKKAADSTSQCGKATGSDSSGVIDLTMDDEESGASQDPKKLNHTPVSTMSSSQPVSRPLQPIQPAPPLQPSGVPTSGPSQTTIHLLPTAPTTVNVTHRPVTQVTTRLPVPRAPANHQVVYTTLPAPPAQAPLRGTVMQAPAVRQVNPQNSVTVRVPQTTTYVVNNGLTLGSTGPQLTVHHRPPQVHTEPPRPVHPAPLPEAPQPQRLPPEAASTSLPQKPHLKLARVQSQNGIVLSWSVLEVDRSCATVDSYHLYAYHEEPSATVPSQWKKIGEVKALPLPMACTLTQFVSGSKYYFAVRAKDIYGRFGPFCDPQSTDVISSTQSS

T4: Flag-Atf7IP(1–448) (human) (UniProt Q6VMQ6)
T4 sequence: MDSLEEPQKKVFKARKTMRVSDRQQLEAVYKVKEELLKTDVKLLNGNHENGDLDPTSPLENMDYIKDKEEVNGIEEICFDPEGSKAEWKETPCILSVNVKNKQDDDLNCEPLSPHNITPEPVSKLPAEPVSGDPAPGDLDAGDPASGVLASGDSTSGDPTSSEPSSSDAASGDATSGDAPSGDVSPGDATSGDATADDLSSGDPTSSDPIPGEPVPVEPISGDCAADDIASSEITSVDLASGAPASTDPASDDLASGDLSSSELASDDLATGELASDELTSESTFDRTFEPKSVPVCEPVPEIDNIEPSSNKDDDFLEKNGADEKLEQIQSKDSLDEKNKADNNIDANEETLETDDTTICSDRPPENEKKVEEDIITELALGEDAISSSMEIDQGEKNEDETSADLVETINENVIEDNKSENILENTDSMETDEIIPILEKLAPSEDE

T5: Flag-Atf7IP(422–841) (human) (UniProt Q6VMQ6)
T5 sequence: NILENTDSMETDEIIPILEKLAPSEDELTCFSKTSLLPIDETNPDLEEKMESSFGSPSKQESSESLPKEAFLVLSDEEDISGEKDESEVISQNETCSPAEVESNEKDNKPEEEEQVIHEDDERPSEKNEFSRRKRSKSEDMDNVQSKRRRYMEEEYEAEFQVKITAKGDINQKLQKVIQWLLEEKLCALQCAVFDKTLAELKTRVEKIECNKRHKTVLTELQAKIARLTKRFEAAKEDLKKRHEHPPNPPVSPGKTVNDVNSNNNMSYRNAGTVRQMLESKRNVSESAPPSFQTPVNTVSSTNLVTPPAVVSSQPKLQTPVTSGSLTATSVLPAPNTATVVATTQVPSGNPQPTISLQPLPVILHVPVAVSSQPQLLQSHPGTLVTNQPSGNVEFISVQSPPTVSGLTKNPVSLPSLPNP

T6: 6Xhis-SUMO-Atf7IP(574–666) (human) (UniProt Q6VMQ6)
T6 sequence: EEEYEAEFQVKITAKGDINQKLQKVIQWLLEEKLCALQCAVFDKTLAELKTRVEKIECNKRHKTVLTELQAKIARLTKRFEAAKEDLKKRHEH

T7: HS-Atf7IP2(297–388) (UniProt Q5U623)
T7 sequence: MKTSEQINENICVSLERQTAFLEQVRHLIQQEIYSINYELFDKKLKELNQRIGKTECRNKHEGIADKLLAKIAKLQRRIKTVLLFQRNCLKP


Legend:
[1] = target: T1, Flag-Atf7IP(836–1270) (human); assay: co-IP; HEK293T cells co-transfected; lysate on anti-DYKDDDDK magnetic beads, eluted with FLAG peptide, blots with anti-FLAG, anti-HA, anti-Myc; 30mM HEPES pH 7.9, 400mM NaCl, 10% glycerol, 0.05% Tween-20, Benzonase; with or without co-expressed HA-Setdb1
FLAG-Atf7IP (human) = target: T2, FLAG-Atf7IP (human); assay: as above
[2] = target: T3, FLAG-Atf7IP(Δ574–666) (human); assay: as above
[3] = target: T4, Flag-Atf7IP(1–448) (human); assay: as above
[4] = target: T5, Flag-Atf7IP(422–841) (human); assay: as above
[5] = target: T6, 6Xhis-SUMO-Atf7IP(574–666) (human); assay: sequential affinity purification of co-expressed proteins; MBP-Setdb1(2–115), HS-Atf7IP(574–666) and Strep-Atf7IP2(297–388) co-expressed in E. coli; purified first by the his and then by the strep tag
HS-Atf7IP2(297–388) = target: T7, HS-Atf7IP2(297–388); assay: sequential affinity purification of co-expressed proteins; MBP-Setdb1(2–115), HS-Atf7IP2(297–388) and Strep-Atf7IP2(297–388) co-expressed in E. coli; purified first by the His and then by the Strep tag

Row | binding [1] | binding (FLAG-Atf7IP (human)) | binding [2] | binding [3] | binding [4] | binding [5] | binding (HS-Atf7IP2(297–388)) | Binder
1 | no binding | binds | no binding | no binding | binds |  |  | Myc-Atf7IP (protein, UniProt Q6VMQ6 1-1270) MDSLEEPQKKVFKARKTMRVSDRQQLEAVYKVKEELLKTDVKLLNGNHENGDLDPTSPLENMDYIKDKEEVNGIEEICFDPEGSKAEWKETPCILSVNVKNKQDDDLNCEPLSPHNITPEPVSKLPAEPVSGDPAPGDLDAGDPASGVLASGDSTSGDPTSSEPSSSDAASGDATSGDAPSGDVSPGDATSGDATADDLSSGDPTSSDPIPGEPVPVEPISGDCAADDIASSEITSVDLASGAPASTDPASDDLASGDLSSSELASDDLATGELASDELTSESTFDRTFEPKSVPVCEPVPEIDNIEPSSNKDDDFLEKNGADEKLEQIQSKDSLDEKNKADNNIDANEETLETDDTTICSDRPPENEKKVEEDIITELALGEDAISSSMEIDQGEKNEDETSADLVETINENVIEDNKSENILENTDSMETDEIIPILEKLAPSEDELTCFSKTSLLPIDETNPDLEEKMESSFGSPSKQESSESLPKEAFLVLSDEEDISGEKDESEVISQNETCSPAEVESNEKDNKPEEEEQVIHEDDERPSEKNEFSRRKRSKSEDMDNVQSKRRRYMEEEYEAEFQVKITAKGDINQKLQKVIQWLLEEKLCALQCAVFDKTLAELKTRVEKIECNKRHKTVLTELQAKIARLTKRFEAAKEDLKKRHEHPPNPPVSPGKTVNDVNSNNNMSYRNAGTVRQMLESKRNVSESAPPSFQTPVNTVSSTNLVTPPAVVSSQPKLQTPVTSGSLTATSVLPAPNTATVVATTQVPSGNPQPTISLQPLPVILHVPVAVSSQPQLLQSHPGTLVTNQPSGNVEFISVQSPPTVSGLTKNPVSLPSLPNPTKPNNVPSVPSPSIQRNPTASAAPLGTTLAVQAVPTAHSIVQATRTSLPTVGPSGLYSPSTNRGPIQMKIPISAFSTSSAAEQNSNTTPRIENQTNKTIDASVSKKAADSTSQCGKATGSDSSGVIDLTMDDEESGASQDPKKLNHTPVSTMSSSQPVSRPLQPIQPAPPLQPSGVPTSGPSQTTIHLLPTAPTTVNVTHRPVTQVTTRLPVPRAPANHQVVYTTLPAPPAQAPLRGTVMQAPAVRQVNPQNSVTVRVPQTTTYVVNNGLTLGSTGPQLTVHHRPPQVHTEPPRPVHPAPLPEAPQPQRLPPEAASTSLPQKPHLKLARVQSQNGIVLSWSVLEVDRSCATVDSYHLYAYHEEPSATVPSQWKKIGEVKALPLPMACTLTQFVSGSKYYFAVRAKDIYGRFGPFCDPQSTDVISSTQSS
2 |  |  |  |  |  | binds | binds | Strep-Atf7IP2(297–388) (domain or fragment, UniProt Q5U623 297-388) MKTSEQINENICVSLERQTAFLEQVRHLIQQEIYSINYELFDKKLKELNQRIGKTECRNKHEGIADKLLAKIAKLQRRIKTVLLFQRNCLKP
